Measurements taken from the supplement of paper PMC10369915.
The other results are listed elsewhere or left out. Cut-off read from the data, not from the text of the source: active = 3.2 or more and inactive = the rest. Only a few entries rise above the background.

Molecular target: SHP2 C-SH2 domain E139D
Assay: enrichment score (SH2-bound / input frequency) (ratio); bacterial display of known human phosphotyrosine sites (pTyr-Var adds point mutants) read by sequencing; higher = stronger binding; tyrosines were phosphorylated by kinases first
Conditions: peptide library: pTyr-Var
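Note: displayed peptides selected on beads carrying the immobilized SH2 domain, with library peptides lacking any tyrosine serving as negative controls.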

Enrichment score, inactive:
LFVDVYGPSVP [NUBPL_Y109_D105Y_YF] 1.5
SLNAVYPKAGS [OAS3_Y376_R378K] 0.737
IINENYDYLKG [NUP98_Y1664] 0.844
DDPRRYQKYGY [OAS1_Y362] 0.681
MSGDVYSTDYY [NTRK2_Y702_R699G] 0.609
FAKSVYWENTL [NUP107_Y296_YF] 1.06
LMVFEYMRHGD [NTRK1_Y591] 2.83
FKRAVYCIIGR [NUP93_Y391_YF] 0.297
IINENYDFLKG [NUP98_Y1664_YF] 0.906
IINENYDYLKV [NUP98_Y1664_G1669V] 1.02
MSRYIYSTDYY [NTRK1_Y676_D674Y] 1.44
MSRDVYSTDYY [NTRK2_Y702] 0.774
YAKSVYWDNTL [NUP107_Y296_E298D] 0.954
HEEDNYIELIP [NWD2_Y566] 0.677
YSTDCYRVGGH [NTRK2_Y707_Y706C] 0.685
MSRDVYSIDYY [NTRK2_Y702_T704I] 0.666
PESIMYWKFTT [NTRK3_Y744_R745W] 0.861
YAKSVYWENTL [NUP107_Y296] 0.973
DDPRTYQKFGF [OAS1_Y362_R361T_YF] 0.782

Molecular target: SHP2 C-SH2 domain wild-type
Assay: as above
Conditions: peptide library: pTyr-Var

Enrichment score, inactive:
LFVDVYGPSVP [NUBPL_Y109_D105Y_YF] 1.34
SLNAVYPKAGS [OAS3_Y376_R378K] 0.639
IINENYDYLKG [NUP98_Y1664] 0.649
DDPRRYQKYGY [OAS1_Y362] 0.673
MSGDVYSTDYY [NTRK2_Y702_R699G] 0.576
FAKSVYWENTL [NUP107_Y296_YF] 0.807
LMVFEYMRHGD [NTRK1_Y591] 2.25
FKRAVYCIIGR [NUP93_Y391_YF] 0.329
IINENYDFLKG [NUP98_Y1664_YF] 0.817
IINENYDYLKV [NUP98_Y1664_G1669V] 0.839
MSRYIYSTDYY [NTRK1_Y676_D674Y] 1.85
MSRDVYSTDYY [NTRK2_Y702] 0.607
YAKSVYWDNTL [NUP107_Y296_E298D] 0.912
HEEDNYIELIP [NWD2_Y566] 0.911
YSTDCYRVGGH [NTRK2_Y707_Y706C] 0.734
MSRDVYSIDYY [NTRK2_Y702_T704I] 0.578
PESIMYWKFTT [NTRK3_Y744_R745W] 0.995
YAKSVYWENTL [NUP107_Y296] 0.899
DDPRTYQKFGF [OAS1_Y362_R361T_YF] 0.655

Molecular target: SHP2 N-SH2 domain L43F
Assay: as above
Conditions: peptide library: pTyr-Var

Enrichment score, inactive:
LFVDVYGPSVP [NUBPL_Y109_D105Y_YF] 1.33
SLNAVYPKAGS [OAS3_Y376_R378K] 0.622
IINENYDYLKG [NUP98_Y1664] 0.76
DDPRRYQKYGY [OAS1_Y362] 0.665
MSGDVYSTDYY [NTRK2_Y702_R699G] 0.776
FAKSVYWENTL [NUP107_Y296_YF] 0.805
LMVFEYMRHGD [NTRK1_Y591] 2.8
FKRAVYCIIGR [NUP93_Y391_YF] 0.383
IINENYDFLKG [NUP98_Y1664_YF] 1.04
IINENYDYLKV [NUP98_Y1664_G1669V] 0.925
MSRYIYSTDYY [NTRK1_Y676_D674Y] 1.16
MSRDVYSTDYY [NTRK2_Y702] 0.565
YAKSVYWDNTL [NUP107_Y296_E298D] 0.82
HEEDNYIELIP [NWD2_Y566] 1.11
YSTDCYRVGGH [NTRK2_Y707_Y706C] 0.69
MSRDVYSIDYY [NTRK2_Y702_T704I] 0.653
PESIMYWKFTT [NTRK3_Y744_R745W] 0.704
YAKSVYWENTL [NUP107_Y296] 1.17
DDPRTYQKFGF [OAS1_Y362_R361T_YF] 0.632

Molecular target: SHP2 N-SH2 domain T42A
Assay: as above
Conditions: peptide library: pTyr-Var

Enrichment score, inactive:
LFVDVYGPSVP [NUBPL_Y109_D105Y_YF] 1.09
SLNAVYPKAGS [OAS3_Y376_R378K] 0.714
IINENYDYLKG [NUP98_Y1664] 0.772
DDPRRYQKYGY [OAS1_Y362] 0.646
MSGDVYSTDYY [NTRK2_Y702_R699G] 0.673
FAKSVYWENTL [NUP107_Y296_YF] 2.02
LMVFEYMRHGD [NTRK1_Y591] 2.55
FKRAVYCIIGR [NUP93_Y391_YF] 0.306
IINENYDFLKG [NUP98_Y1664_YF] 0.866
IINENYDYLKV [NUP98_Y1664_G1669V] 0.843
MSRYIYSTDYY [NTRK1_Y676_D674Y] 1.01
MSRDVYSTDYY [NTRK2_Y702] 0.557
YAKSVYWDNTL [NUP107_Y296_E298D] 1.43
HEEDNYIELIP [NWD2_Y566] 0.774
YSTDCYRVGGH [NTRK2_Y707_Y706C] 0.664
MSRDVYSIDYY [NTRK2_Y702_T704I] 0.553
PESIMYWKFTT [NTRK3_Y744_R745W] 1.74
YAKSVYWENTL [NUP107_Y296] 2.22
DDPRTYQKFGF [OAS1_Y362_R361T_YF] 0.596

Molecular target: SHP2 N-SH2 domain T52S
Assay: as above
Conditions: peptide library: pTyr-Var

Enrichment score, inactive:
LFVDVYGPSVP [NUBPL_Y109_D105Y_YF] 1.36
SLNAVYPKAGS [OAS3_Y376_R378K] 0.702
IINENYDYLKG [NUP98_Y1664] 0.874
DDPRRYQKYGY [OAS1_Y362] 0.756
MSGDVYSTDYY [NTRK2_Y702_R699G] 0.548
FAKSVYWENTL [NUP107_Y296_YF] 0.944
LMVFEYMRHGD [NTRK1_Y591] 2.58
FKRAVYCIIGR [NUP93_Y391_YF] 0.384
IINENYDFLKG [NUP98_Y1664_YF] 0.753
IINENYDYLKV [NUP98_Y1664_G1669V] 0.901
MSRYIYSTDYY [NTRK1_Y676_D674Y] 1.2
MSRDVYSTDYY [NTRK2_Y702] 0.747
YAKSVYWDNTL [NUP107_Y296_E298D] 0.79
HEEDNYIELIP [NWD2_Y566] 0.839
YSTDCYRVGGH [NTRK2_Y707_Y706C] 0.572
MSRDVYSIDYY [NTRK2_Y702_T704I] 0.857
PESIMYWKFTT [NTRK3_Y744_R745W] 1.13
YAKSVYWENTL [NUP107_Y296] 1.23
DDPRTYQKFGF [OAS1_Y362_R361T_YF] 0.689

Molecular target: SHP2 N-SH2 domain wild-type
Assay: as above
Conditions: peptide library: pTyr-Var

Enrichment score, inactive:
LFVDVYGPSVP [NUBPL_Y109_D105Y_YF] 1.21
SLNAVYPKAGS [OAS3_Y376_R378K] 0.658
IINENYDYLKG [NUP98_Y1664] 0.9
DDPRRYQKYGY [OAS1_Y362] 0.928
MSGDVYSTDYY [NTRK2_Y702_R699G] 0.732
FAKSVYWENTL [NUP107_Y296_YF] 1.15
LMVFEYMRHGD [NTRK1_Y591] 2.83
FKRAVYCIIGR [NUP93_Y391_YF] 0.282
IINENYDFLKG [NUP98_Y1664_YF] 1.19
IINENYDYLKV [NUP98_Y1664_G1669V] 0.829
MSRYIYSTDYY [NTRK1_Y676_D674Y] 1.23
MSRDVYSTDYY [NTRK2_Y702] 0.798
YAKSVYWDNTL [NUP107_Y296_E298D] 0.85
HEEDNYIELIP [NWD2_Y566] 1.45
YSTDCYRVGGH [NTRK2_Y707_Y706C] 0.759
MSRDVYSIDYY [NTRK2_Y702_T704I] 0.719
PESIMYWKFTT [NTRK3_Y744_R745W] 1.22
YAKSVYWENTL [NUP107_Y296] 1.03
DDPRTYQKFGF [OAS1_Y362_R361T_YF] 0.795
